# In the supplement of paper PMC3334620:
# Whole data set: some 33,000 sequences, median “E-score (-0.5 to 0.5)” near -0.032, cut for the highest 2% near 0.36. The list shows a part of the results.
# Biological target: T1, Sko1 (UniProt Q02100)
# T1 sequence: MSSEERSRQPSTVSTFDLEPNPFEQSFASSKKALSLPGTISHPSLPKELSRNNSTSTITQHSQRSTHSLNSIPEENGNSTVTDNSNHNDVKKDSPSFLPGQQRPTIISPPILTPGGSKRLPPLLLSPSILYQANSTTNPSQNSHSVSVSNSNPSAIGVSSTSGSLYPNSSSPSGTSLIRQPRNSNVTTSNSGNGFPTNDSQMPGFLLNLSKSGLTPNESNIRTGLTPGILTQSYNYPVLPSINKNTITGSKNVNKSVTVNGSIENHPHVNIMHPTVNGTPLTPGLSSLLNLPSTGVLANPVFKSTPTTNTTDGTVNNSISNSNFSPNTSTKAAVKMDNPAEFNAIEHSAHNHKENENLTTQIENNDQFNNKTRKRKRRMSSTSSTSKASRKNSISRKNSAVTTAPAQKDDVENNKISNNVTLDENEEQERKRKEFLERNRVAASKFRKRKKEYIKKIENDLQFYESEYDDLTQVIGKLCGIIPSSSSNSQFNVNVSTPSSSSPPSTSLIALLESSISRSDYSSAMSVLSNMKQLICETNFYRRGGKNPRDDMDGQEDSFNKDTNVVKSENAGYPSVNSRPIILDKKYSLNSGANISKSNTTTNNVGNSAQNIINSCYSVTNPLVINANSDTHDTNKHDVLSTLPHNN
# Experiment: PBM E-score (8-mer binding enrichment) (E-score (-0.5 to 0.5)); higher = stronger / more preferred TF binding; most listed sequences are background and not binding sites
# Conditions: protein concentration: 200 nM; construct: GST-full length
# Experimental: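 Universal 'all 10-mer' protein binding microarrays (Agilent AMADID 015681) probed with GST-tagged S. cerevisiae TFs (full-length or DBD) made by in vitro transcription/translation (PURExpress), about 100-200 nM. Bound TF was detected with fluorescent anti-GST. Each ungapped 8-mer (which stands for itself and its reverse complement) is scored by the PBM enrichment score (E-score), a modified Wilcoxon-Mann-Whitney statistic from -0.5 to +0.5, computed with the Universal PBM Analysis Suite. Scale: above 0.35 generally sequence-specific binding.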
row,Sequence,PBM E-score
1,CCTCCTTC,-0.269
2,ACAGCGCA,-0.225
3,ATCCGGCG,-0.054
4,ATACGGAT,0.111
5,GGACTGCC,-0.309
6,ATTAGCAC,0.0376
7,CCGACCGA,-0.283
8,CTACCCCC,-0.391
9,GAGCCGCA,-0.105
10,CGAATTGC,0.0603
11,AGGTACCG,-0.0121
12,GGACTATA,-0.0152
13,GAATCTGC,-0.17
14,TCGCGGAA,-0.277
15,ACCCCTTC,-0.152
16,CATCGCCG,-0.137
17,CCACCGGC,-0.255
18,GATTTTGC,-0.146
19,GCGACACC,-0.144
20,CGTCTTTA,0.253
21,CCCTTGCC,-0.337
22,ATTCTTAA,0.0641
23,CCGGGAAC,-0.211
24,CAGCACTC,-0.0266
25,ATCGGGTC,-0.147

row,Sequence,PBM E-score
1,GCGAGAGA,-0.16
2,CGTTAGAG,-0.0197
3,ATGTGGTA,0.133
4,ACCTCCAC,-0.11
5,GAGGACAC,-0.0881
6,ACTGATCT,0.169
7,GCTATCCA,-0.145
8,ACATGCGA,0.04
9,GCGGCAAC,-0.0548
10,TCGTCAGA,0.307
11,GGCGAGGA,-0.222
12,AGGATAGG,-0.198
13,GAGTTATA,0.0198
14,CCCTTTTA,-0.281
15,GCCATACC,-0.259
16,CGGACTAG,-0.293
17,AGTCCTGC,-0.185
18,CTGAGCAC,-0.171
19,CCCCCTGC,-0.29
20,AACTATCT,-0.0231
21,GAGGTACA,0.00532
22,AAGGGGTC,-0.0371
23,GCAGACGC,-0.107
24,CTCGTCGA,0.0276
25,GCCTCCCC,-0.19

row,Sequence,PBM E-score
1,AACTGAAT,-0.0415
2,GTAATCAA,0.228
3,CTATTCGC,-0.0146
4,AGGGTGAG,-0.207
5,CAACTTGG,0.0671
6,CGACATTC,0.165
7,AGAGTACT,-0.0858
8,ATATCCTC,-0.115
9,AGGGTGAC,0.184
10,GACCTTAA,-0.0623
11,CTATATCC,-0.146
12,CGGCAAGC,-0.0636
13,ATTCATAA,0.156
14,CCGCACAG,-0.225
15,CTCGTGCC,-0.27
16,AGGCAATG,0.00123
17,CCCTGGCG,-0.112
18,CCATGACA,0.163
19,CTGCTGGA,-0.159
20,CAGTATCG,-0.1
21,ACAAGCCA,-0.187
22,ACCTATTA,0.141
23,ATAAACTC,0.102
24,GAAGTCCC,-0.334
25,GACGGGAA,0.0248

row,Sequence,PBM E-score
1,AGATTTCG,0.114
2,CATTTCTA,0.0296
3,AGAGTTGA,-0.0236
4,GAACCCAC,0.0247
5,TGTACCAA,0.185
6,ACCGGCCG,-0.205
7,ATGATACG,0.339
8,CTCTGGCC,-0.173
9,GTGACCAA,0.0721
10,ATTGGCTA,-0.00448
11,CTTTATCC,-0.0554
12,GTAACGTA,0.421
13,CTCGGCAA,-0.0838
14,CAAGCAAC,0.122
15,ACCGAAGA,0.0708
16,AATTCTAG,0.0547
17,AATCAATT,0.114
18,AGGATACC,-0.201
19,AGGCACTA,-0.0926
20,ATACGTCC,0.369
21,AGCTAGCG,-0.0649
22,AGTTTAGA,0.0209
23,AGGTGGAA,0.00738
24,CCTATAAG,-0.147
25,ACAAGTCG,-0.166

row,Sequence,PBM E-score
1,ACAGATCC,0.0595
2,AAACACGT,0.413
3,AGCGACCG,-0.0747
4,AACGGCGG,-0.353
5,CAACAGGG,-0.154
6,CTTGTTCA,0.072
7,CCGTACGG,-0.262
8,ACAGTGGG,-0.343
9,AAAGTATA,0.208
10,ATAACGAA,0.268
11,CAAGGTTA,0.0617
12,ACCTCCGC,-0.349
13,CAGACCAA,-0.0712
14,CAAGCACA,-0.152
15,AATAATTG,0.0921
16,GTCGTGAA,0.0748
17,TGCCAGCA,-0.0186
18,GCGGTACC,-0.238
19,GAATTAGC,0.0445
20,GAGATCAC,0.00833
21,AAAGTAAT,0.214
22,AGAAGTAC,0.106
23,TGCGCAAA,0.107
24,AACACACA,0.0918
25,TCACAGCA,0.034

row,Sequence,PBM E-score
1,CCGATAGA,-0.274
2,CAACAACG,0.138
3,CCTTTAGA,-0.183
4,CAGTAAAA,0.265
5,ACGGTATC,0.0965
6,ATCGTGAA,-0.0642
7,CTAATGAC,0.299
8,CCAGAAAA,0.111
9,CCGTGGTA,-0.172
10,AACGGCCC,-0.397
11,CATCATAA,0.299
12,GCAATAGC,0.0541
13,CGCAATGA,0.277
14,ATCAGTAA,0.187
15,GGTCGACC,-0.143
16,CTTCTTCA,-0.0914
17,CATGCCCG,-0.0373
18,GCAAAATA,0.139
19,TAAGAATA,0.153
20,ATGCGTCG,0.0928
21,ACAGAGTG,0.0194
22,AGAATAAA,0.178
23,AATGATAT,0.285
24,GTGCCTAA,-0.052
25,GACGGCTA,-0.0929

row,Sequence,PBM E-score
1,AGGGACAT,-0.152
2,CTTACTGA,0.0116
3,CGTTATGC,0.262
4,ACTTTGTA,0.189
5,CGGCCTAC,-0.0111
6,ATCTACAC,0.173
7,CCCGATAG,-0.304
8,CAATTCCA,-0.201
9,CCCCTACC,-0.0799
10,ACAAAAAG,0.147
11,ATGCTGAC,0.185
12,ACAAGCAT,-0.0431
13,GAAGTAGA,0.0821
14,AGCCACAG,-0.248
15,CGATGCTC,-0.247
16,TAAACGGA,-0.0437
17,TCACTGCA,0.175
18,CGATACGA,0.102
19,ACTTTTAT,0.162
20,ATCATTTG,0.175
21,GGGTAATA,0.0779
22,AATAAGAT,0.249
